The source of these data is a collection of fitness landscapes (doi:10.1016/j.celrep.2020.107928).

Over roughly 81,000 sequences, “one-hybrid fitness for binding NBS DNA” has its median near -0.1; the highest 2% begin near 0.36. Some of the results follow.

First the molecules themselves.
B1: Caulobacter ParB omega fusion; a variant is named by its letters at X, in order, B8GW30 (parent)
chain: MESVVVGEPGMSEGRRGLGRGLSALLGEVDAAPAQAPGEQLGGSREAPIEILQRNPDQPRRTFREEDLEDLSNSIREKGVLQPILVRPSPDTAGEYQIVAGERAWRAAQRAGLKTVPIMVRELDDLAVLEIGIIENVQRADLNVLEEALSYKVLMEKFERTQENIAQTIGKSXSHVANXMRLLXLPDEVQSYLVSGELTAXHARAIAAAADPVALAKQIIEGGLSVRETEALARKAPNLSAGKSKGGRPPRVKDTDTQALESDLSSVLGLDVSIDHRGSTGTLTITYATLEQLDDLCNRLTRGI

The assay covers variants of B1. The experiment in a line: one-hybrid fitness for binding NBS DNA (the Noc-binding site; scaled: cognate 1, non-cognate 0); higher = stronger binding. The conditions noted are these: with NBS DNA site. The procedure, abridged:
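Caulobacter ParB libraries with four specificity codons randomised were screened by bacterial one-hybrid selection in the E. coli USO strain, using a HIS3 reporter whose site lies 19 bp from the promoter. Selection ran for 48 hours at 37°C on M9 lacking histidine, with 0.1 mM IPTG and 5 mM 3-AT. Plasmids were Illumina-sequenced before and after selection, three replicate libraries were pooled, and variants with under 10 reads were dropped. Fitness is the log change in each variant's read ratio to wild type, rescaled against the cognate and non-cognate sites.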
Consider ALDV, for which the “one-hybrid fitness for binding NBS DNA” value is ≤ 0.2.

As to RIDK, the “one-hybrid fitness for binding NBS DNA” value was ≤ 0.2. In the case of PLAP, the “one-hybrid fitness for binding NBS DNA” value is ≤ 0.2. For the variant LTTT, the “one-hybrid fitness for binding NBS DNA” value was ≤ 0.2. The figure for DLIY is ≤ 0.2.

Take CVGG: the “one-hybrid fitness for binding NBS DNA” value was ≤ 0.2. With MGFT the figure was ≤ 0.2.

As for PDGG, the “one-hybrid fitness for binding NBS DNA” value is ≤ 0.2. The figure for LDML is ≤ 0.2. With AHDT the figure was ≤ 0.2. With TEGI the figure was ≤ 0.2; with ATFR, ≤ 0.2.

Consider EMLC, for which the “one-hybrid fitness for binding NBS DNA” value was ≤ 0.2.

In the case of RHHC, the “one-hybrid fitness for binding NBS DNA” value is ≤ 0.2. With SIWT the figure was ≤ 0.2; with LSIT, ≤ 0.2; with VCTC, ≤ 0.2. The figure for PPWR is ≤ 0.2; for AMSC it is ≤ 0.2. With LNSN the figure was ≤ 0.2.

Take ICMR: the “one-hybrid fitness for binding NBS DNA” value was ≤ 0.2.

As to QTRG, the “one-hybrid fitness for binding NBS DNA” value was 0.496.

For PMWV, the “one-hybrid fitness for binding NBS DNA” value was ≤ 0.2. As to CSIM, the “one-hybrid fitness for binding NBS DNA” value was ≤ 0.2.

FASL: the “one-hybrid fitness for binding NBS DNA” value was ≤ 0.2. The figure for YQVF is ≤ 0.2; for NQWC it is ≤ 0.2; for VTGS it is ≤ 0.2. With SRMT the figure was ≤ 0.2.

With SHVS, the “one-hybrid fitness for binding NBS DNA” value was ≤ 0.2. With PRRL the figure was ≤ 0.2; with YENK, ≤ 0.2; with TPCV, ≤ 0.2. The figure for KGHR is ≤ 0.2; for PHTM it is ≤ 0.2; for PCGT it is ≤ 0.2. With KQRQ the figure was ≤ 0.2; with CEDV, ≤ 0.2. For the variant RAKP, the “one-hybrid fitness for binding NBS DNA” value is ≤ 0.2. The figure for CMNS is ≤ 0.2. Regarding NNHL, the “one-hybrid fitness for binding NBS DNA” value is ≤ 0.2.

As for QMPG, the “one-hybrid fitness for binding NBS DNA” value is ≤ 0.2. With SIDR the figure was ≤ 0.2; with EMSS, ≤ 0.2; with LDNA, ≤ 0.2.

As to NRVG, the “one-hybrid fitness for binding NBS DNA” value is ≤ 0.2. The figure for TIDT is ≤ 0.2.

For the variant HMPF, the “one-hybrid fitness for binding NBS DNA” value was ≤ 0.2. Regarding MAST, the “one-hybrid fitness for binding NBS DNA” value is ≤ 0.2. The figure for WPYP is ≤ 0.2; for KIPR it is ≤ 0.2; for HVKI it is ≤ 0.2. The figure for TFMD is ≤ 0.2; for VTHG it is ≤ 0.2; for WRQN it is 0.247. The figure for RIRM is ≤ 0.2; for VNPS it is ≤ 0.2. For GRLC, the “one-hybrid fitness for binding NBS DNA” value was ≤ 0.2. With HCWV the figure was ≤ 0.2. RPFA: the “one-hybrid fitness for binding NBS DNA” value is ≤ 0.2. On to NLYR, for which the “one-hybrid fitness for binding NBS DNA” value is ≤ 0.2. With SSKQ the figure was ≤ 0.2; with QKPL, ≤ 0.2. With SWYD the figure was ≤ 0.2. With QKPI the figure was ≤ 0.2; with QQSI, ≤ 0.2. Turning to SSTK, the “one-hybrid fitness for binding NBS DNA” value is ≤ 0.2.

Consider RDKC, for which the “one-hybrid fitness for binding NBS DNA” value was ≤ 0.2. With MAWK the figure was ≤ 0.2; with RIVV, ≤ 0.2; with AKSN, ≤ 0.2. On to ENIR, for which the “one-hybrid fitness for binding NBS DNA” value was ≤ 0.2. With YQEG the figure was ≤ 0.2. The figure for NYFE is ≤ 0.2. With GYTV the figure was ≤ 0.2; with TSVN, ≤ 0.2. With DVAA, the “one-hybrid fitness for binding NBS DNA” value was ≤ 0.2. Consider REPS, for which the “one-hybrid fitness for binding NBS DNA” value is ≤ 0.2. On to DQND, for which the “one-hybrid fitness for binding NBS DNA” value is ≤ 0.2. With VHFW the figure was ≤ 0.2; with QEQV, ≤ 0.2; with YSCN, ≤ 0.2. For SPGG, the “one-hybrid fitness for binding NBS DNA” value was ≤ 0.2.

In the case of YLNY, the “one-hybrid fitness for binding NBS DNA” value is ≤ 0.2. With HYSS the figure was ≤ 0.2; with NADK, ≤ 0.2.

In the case of HSMR, the “one-hybrid fitness for binding NBS DNA” value was ≤ 0.2. Regarding AKLI, the “one-hybrid fitness for binding NBS DNA” value was ≤ 0.2. With NSTV the figure was ≤ 0.2; with VLAP, ≤ 0.2. The figure for EIQG is ≤ 0.2; for YNTN it is ≤ 0.2; for PPYT it is ≤ 0.2. With HPHF the figure was ≤ 0.2. With AFRS, the “one-hybrid fitness for binding NBS DNA” value was ≤ 0.2. For YLSY, the “one-hybrid fitness for binding NBS DNA” value is ≤ 0.2.

Regarding KEHC, the “one-hybrid fitness for binding NBS DNA” value is ≤ 0.2. With NYTR the figure was ≤ 0.2; with SHSC, ≤ 0.2; with LSED, ≤ 0.2. The figure for CCLC is ≤ 0.2. With NRNH the figure was ≤ 0.2. Regarding QHPT, the “one-hybrid fitness for binding NBS DNA” value was found to be 0.248. With PWPF the figure was ≤ 0.2. The figure for GLLY is ≤ 0.2; for KTIS it is ≤ 0.2; for RWDC it is ≤ 0.2. With TRMF the figure was ≤ 0.2; with CYAC, ≤ 0.2. As for KWTG, the “one-hybrid fitness for binding NBS DNA” value is ≤ 0.2. The figure for GMSV is ≤ 0.2; for RKVT it is 0.512; for FRPC it is ≤ 0.2. The figure for TMDC is ≤ 0.2.

As for PQTS, the “one-hybrid fitness for binding NBS DNA” value is ≤ 0.2. Turning to VYRR, the “one-hybrid fitness for binding NBS DNA” value was ≤ 0.2. As for NQTG, the “one-hybrid fitness for binding NBS DNA” value was ≤ 0.2. The figure for KDLE is ≤ 0.2; for RTRQ it is 0.297. For the variant DDCL, the “one-hybrid fitness for binding NBS DNA” value was ≤ 0.2.

Regarding RTRR, the “one-hybrid fitness for binding NBS DNA” value stood at 0.818. Consider VAAM, for which the “one-hybrid fitness for binding NBS DNA” value was ≤ 0.2. The figure for RVPP is ≤ 0.2. With HKSQ, the “one-hybrid fitness for binding NBS DNA” value was ≤ 0.2. WSHE: the “one-hybrid fitness for binding NBS DNA” value was ≤ 0.2.

PHLG: the “one-hybrid fitness for binding NBS DNA” value is ≤ 0.2. The figure for PSCI is ≤ 0.2; for NLCE it is ≤ 0.2. The figure for VIHC is ≤ 0.2. The figure for HIMN is ≤ 0.2; for HANL it is ≤ 0.2. Regarding SCWS, the “one-hybrid fitness for binding NBS DNA” value is ≤ 0.2. The figure for LASY is ≤ 0.2; for LCWV it is ≤ 0.2. With CEGR the figure was ≤ 0.2; with QHFK, ≤ 0.2; with QLKE, ≤ 0.2.

SQFR: the “one-hybrid fitness for binding NBS DNA” value is ≤ 0.2. The figure for VEIA is ≤ 0.2; for QLHQ it is ≤ 0.2.

STIY: the “one-hybrid fitness for binding NBS DNA” value was ≤ 0.2. With SRQG the figure was ≤ 0.2. The figure for SLPI is ≤ 0.2; for DGIR it is ≤ 0.2; for QYEC it is ≤ 0.2. With QAQP the figure was ≤ 0.2; with QSTT, 0.403. YSKH: the “one-hybrid fitness for binding NBS DNA” value was ≤ 0.2. With GVKW the figure was ≤ 0.2; with APPM, ≤ 0.2.

SPIN: the “one-hybrid fitness for binding NBS DNA” value was ≤ 0.2. Consider YLTY, for which the “one-hybrid fitness for binding NBS DNA” value is ≤ 0.2.

Regarding SSTF, the “one-hybrid fitness for binding NBS DNA” value is ≤ 0.2.

REYC: the “one-hybrid fitness for binding NBS DNA” value is ≤ 0.2. Regarding GHHA, the “one-hybrid fitness for binding NBS DNA” value is ≤ 0.2. The figure for DSRC is ≤ 0.2; for MEDY it is ≤ 0.2. The figure for WWAS is ≤ 0.2; for HVGT it is ≤ 0.2; for GVRD it is ≤ 0.2. The figure for QCVY is ≤ 0.2; for ADRC it is ≤ 0.2; for RKHN it is ≤ 0.2.

On to FNGA, for which the “one-hybrid fitness for binding NBS DNA” value was ≤ 0.2.

PNNW: the “one-hybrid fitness for binding NBS DNA” value was ≤ 0.2. The figure for VLLT is ≤ 0.2. As to GYSR, the “one-hybrid fitness for binding NBS DNA” value was ≤ 0.2. With ISND the figure was ≤ 0.2. For the variant IWHR, the “one-hybrid fitness for binding NBS DNA” value is ≤ 0.2.

Consider TRHG, for which the “one-hybrid fitness for binding NBS DNA” value is ≤ 0.2.

On to MQPT, for which the “one-hybrid fitness for binding NBS DNA” value is ≤ 0.2. With LVPY the figure was ≤ 0.2. With PYAA the figure was ≤ 0.2. With HWCR the figure was ≤ 0.2; with PMLN, ≤ 0.2.

As to NVHH, the “one-hybrid fitness for binding NBS DNA” value was ≤ 0.2. With YTTD the figure was ≤ 0.2; with SELV, ≤ 0.2; with NMKM, ≤ 0.2.

For the variant CRQV, the “one-hybrid fitness for binding NBS DNA” value was ≤ 0.2. With PHVM the figure was ≤ 0.2; with ATLP, ≤ 0.2; with WPRW, ≤ 0.2. Consider SLGT, for which the “one-hybrid fitness for binding NBS DNA” value was ≤ 0.2. With NPYE the figure was ≤ 0.2; with SSFA, ≤ 0.2.

Regarding FYKS, the “one-hybrid fitness for binding NBS DNA” value is ≤ 0.2. With SIYL the figure was ≤ 0.2; with CIIR, ≤ 0.2; with HYYS, ≤ 0.2. With VIKL the figure was ≤ 0.2; with RCAF, ≤ 0.2; with WMKE, ≤ 0.2. Regarding VGHL, the “one-hybrid fitness for binding NBS DNA” value is ≤ 0.2.

For the variant QING, the “one-hybrid fitness for binding NBS DNA” value is ≤ 0.2.
